# Reference: the supplement of paper PMC8728848
# This is one part of the list.
# B1: Cohesin-hDECTIN-1 (Homo sapiens) (protein)
# chain: LDITSHHHHHHDDLDAVRIKVDTVNAKPGDTVRIPVRFSGIPSKGIANCDFVYSYDPNVLEIIEIEPGDIIVDPNPDKSFDTAVYPDRKIIVFLFAEDSGTGAYAITKDGVFATIVAKVKEGAPNGLSVIKFVEVGGFANNDLVEQKTQFFDGGVNVGDTTEPATPTTPVTTPTTTDDLDAASSSPCPPNWIIYEKSCYLFSMSLNSWDGSKRQCWQLGSNLLKIDSSNELGFIVKQVSSQPDNSFWIGLSRPQTEVPWLWEDGSTFSSNLFQIRTTATQENPSPNCVWIHVSVIYDQLCSVPSYSICEKKFM
# Key:
# Assay in all cases: glycan array binding signal (z-score within array); higher = stronger binding
# Details in all cases: glycan notation: IUPAC condensed, linker removed
# [1] = target: Neu5Ac(a2-3)Gal(b1-4)GlcNAc(b1-3)Gal(b1-4)GlcNAc(b1-3)Gal(b1-4)GlcNAc
# Summary of the method: (§1)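 The Consortium for Functional Glycomics database supplied 3228 glycan arrays, of which those lacking an available protein sequence were dropped. The binding signal, a within-array Z-score, was averaged across arrays of the same protein sequence and across linkers. Negative scores can be read as non-binding.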
# [2] = target: Neu5Ac(a2-3)Gal(b1-4)GlcNAc(b1-3)Gal(b1-4)GlcNAc(b1-3)Gal(b1-4)GlcNAc(b1-2)Man(a1-3)[Neu5Ac(a2-3)Gal(b1-4)GlcNAc(b1-3)Gal(b1-4)GlcNAc(b1-3)Gal(b1-4)GlcNAc(b1-2)Man(a1-6)]GalNAc
# Summary of the method: as §1
# [3] = target: Neu5Ac(a2-3)Gal(b1-4)GlcNAc(b1-3)Gal(b1-4)GlcNAc(b1-3)GalNAc
# Summary of the method: as §1
# [4] = target: Neu5Ac(a2-3)Gal(b1-4)GlcNAc(b1-3)Gal(b1-4)GlcNAc(b1-3)[Neu5Ac(a2-3)Gal(b1-4)GlcNAc(b1-3)Gal(b1-4)GlcNAc(b1-6)]GalNAc
# Summary of the method: as §1
# [5] = target: Neu5Ac(a2-3)Gal(b1-4)GlcNAc(b1-3)Gal(b1-4)GlcNAc(b1-6)[Gal(b1-3)]GalNAc
# Summary of the method: as §1
# [6] = target: Neu5Ac(a2-3)Gal(b1-4)GlcNAc(b1-3)Gal(b1-4)[Fuc(a1-3)]GlcNAc
# Summary of the method: as §1
# [7] = target: Neu5Ac(a2-3)Gal(b1-4)GlcNAc(b1-3)GalNAc
# Summary of the method: as §1
# [8] = target: Neu5Ac(a2-3)Gal(b1-4)GlcNAc(b1-3)[Neu5Ac(a2-3)Gal(b1-4)GlcNAc(b1-6)]GalNAc
# Summary of the method: as §1
# [9] = target: Neu5Ac(a2-3)Gal(b1-4)GlcNAc(b1-6)GalNAc
# Summary of the method: as §1
# [10] = target: Neu5Ac(a2-3)Gal(b1-4)GlcNAc(b1-6)[Gal(b1-3)]GalNAc
# Summary of the method: as §1
# [11] = target: Neu5Ac(a2-3)Gal(b1-4)GlcNAc(b1-6)[Neu5Ac(a2-3)Gal(b1-3)]GalNAc
# Summary of the method: as §1
# [12] = target: Neu5Ac(a2-3)Gal(b1-4)GlcNAc6S
# Summary of the method: as §1
# [13] = target: Neu5Ac(a2-3)Gal(b1-4)[Fuc(a1-3)]GlcNAc
# Summary of the method: as §1
# [14] = target: Neu5Ac(a2-3)Gal(b1-4)[Fuc(a1-3)]GlcNAc(b1-2)Man
# Summary of the method: as §1
# [15] = target: Neu5Ac(a2-3)Gal(b1-4)[Fuc(a1-3)]GlcNAc(b1-3)Gal
# Summary of the method: as §1
# [16] = target: Neu5Ac(a2-3)Gal(b1-4)[Fuc(a1-3)]GlcNAc(b1-3)Gal(b1-4)GlcNAc
# Summary of the method: as §1
# [17] = target: Neu5Ac(a2-3)Gal(b1-4)[Fuc(a1-3)]GlcNAc(b1-3)Gal(b1-4)[Fuc(a1-3)]GlcNAc(b1-3)Gal(b1-4)[Fuc(a1-3)]GlcNAc
# Summary of the method: as §1
# [18] = target: Neu5Ac(a2-3)Gal(b1-4)[Fuc(a1-3)]GlcNAc(b1-3)GalNAc
# Summary of the method: as §1
# [19] = target: Neu5Ac(a2-3)Gal(b1-4)[Fuc(a1-3)]GlcNAc(b1-6)[Gal(b1-3)]GalNAc
# Summary of the method: as §1
# [20] = target: Neu5Ac(a2-3)Gal(b1-4)[Fuc(a1-3)]GlcNAc(b1-6)[Neu5Ac(a2-3)Gal(b1-3)]GalNAc
# Summary of the method: as §1
# [21] = target: Neu5Ac(a2-3)Gal(b1-4)[Fuc(a1-3)]GlcNAc6S
# Summary of the method: as §1
# [22] = target: Neu5Ac(a2-3)Gal6S(b1-4)GlcNAc
# Summary of the method: as §1
# [23] = target: Neu5Ac(a2-3)Gal6S(b1-4)[Fuc(a1-3)]GlcNAc
# Summary of the method: as §1
# [24] = target: Neu5Ac(a2-3)GalNAc
# Summary of the method: as §1
# [25] = target: Neu5Ac(a2-3)GalNAc(b1-4)GlcNAc
# Summary of the method: as §1
# [26] = target: Neu5Ac(a2-3)[GalNAc(b1-4)]Gal(b1-4)Glc
# Summary of the method: as §1
# [27] = target: Neu5Ac(a2-3)[GalNAc(b1-4)]Gal(b1-4)GlcNAc
# Summary of the method: as §1
# [28] = target: Neu5Ac(a2-3)[GalNAc(b1-4)]Gal(b1-4)GlcNAc(b1-3)GalNAc
# Summary of the method: as §1
# [29] = target: Neu5Ac(a2-3)[Neu5Ac(a2-6)]GalNAc
# Summary of the method: as §1
# [30] = target: Neu5Ac(a2-6)Gal
# Summary of the method: as §1
# [31] = target: Neu5Ac(a2-6)Gal(b1-3)GlcNAc(b1-3)[Gal(b1-4)GlcNAc(b1-6)]Gal(b1-4)Glc
# Summary of the method: as §1
# [32] = target: Neu5Ac(a2-6)Gal(b1-4)Glc
# Summary of the method: as §1
# [33] = target: Neu5Ac(a2-6)Gal(b1-4)GlcNAc
# Summary of the method: as §1
# [34] = target: Neu5Ac(a2-6)Gal(b1-4)GlcNAc(b1-2)Man
# Summary of the method: as §1
# [35] = target: Neu5Ac(a2-6)Gal(b1-4)GlcNAc(b1-2)Man(a1-3)Man(b1-4)GlcNAc(b1-4)GlcNAc
# Summary of the method: as §1
# [36] = target: Neu5Ac(a2-6)Gal(b1-4)GlcNAc(b1-2)Man(a1-3)[Gal(b1-4)GlcNAc(b1-2)Man(a1-6)]Man(b1-4)GlcNAc(b1-4)GlcNAc
# Summary of the method: as §1
# [37] = target: Neu5Ac(a2-6)Gal(b1-4)GlcNAc(b1-2)Man(a1-3)[GlcNAc(b1-2)Man(a1-6)]Man(b1-4)GlcNAc(b1-4)GlcNAc
# Summary of the method: as §1
# [38] = target: Neu5Ac(a2-6)Gal(b1-4)GlcNAc(b1-2)Man(a1-3)[GlcNAc(b1-4)][Neu5Ac(a2-6)Gal(b1-4)GlcNAc(b1-2)Man(a1-6)]Man(b1-4)GlcNAc(b1-4)GlcNAc
# Summary of the method: as §1
binder,measurement,setting,value
B1,glycan array binding signal (z-score),[1],-0.243
same,glycan array binding signal (z-score),[2],-0.295
same,glycan array binding signal (z-score),[3],-0.213
same,glycan array binding signal (z-score),[4],-0.246
same,glycan array binding signal (z-score),[5],-0.472
same,glycan array binding signal (z-score),[6],-0.618
same,glycan array binding signal (z-score),[7],-0.281
same,glycan array binding signal (z-score),[8],-0.163
same,glycan array binding signal (z-score),[9],2.61
same,glycan array binding signal (z-score),[10],-0.363
same,glycan array binding signal (z-score),[11],-0.469
same,glycan array binding signal (z-score),[12],-0.454
same,glycan array binding signal (z-score),[13],-0.44
same,glycan array binding signal (z-score),[14],0.439
same,glycan array binding signal (z-score),[15],-0.497
same,glycan array binding signal (z-score),[16],-0.448
same,glycan array binding signal (z-score),[17],-0.537
same,glycan array binding signal (z-score),[18],-0.287
same,glycan array binding signal (z-score),[19],-0.466
same,glycan array binding signal (z-score),[20],-0.412
same,glycan array binding signal (z-score),[21],-0.344
same,glycan array binding signal (z-score),[22],-0.516
same,glycan array binding signal (z-score),[23],-0.391
same,glycan array binding signal (z-score),[24],-0.548
same,glycan array binding signal (z-score),[25],-0.416
same,glycan array binding signal (z-score),[26],0.848
same,glycan array binding signal (z-score),[27],-0.076
same,glycan array binding signal (z-score),[28],0.023
same,glycan array binding signal (z-score),[29],-0.016
same,glycan array binding signal (z-score),[30],-0.57
same,glycan array binding signal (z-score),[31],-0.564
same,glycan array binding signal (z-score),[32],-0.438
same,glycan array binding signal (z-score),[33],-0.268
same,glycan array binding signal (z-score),[34],-0.293
same,glycan array binding signal (z-score),[35],-0.577
same,glycan array binding signal (z-score),[36],-0.4
same,glycan array binding signal (z-score),[37],-0.629
same,glycan array binding signal (z-score),[38],-0.427
